Data: publication PMC9911399, “Two distinct binding modes provide the RNA-binding protein RbFox with extraordinary sequence specificity”
Positions count from the first letter of the chain named. This is one part of the list.

T1: RBFOX1 RRM RbFoxmut (Fox-RRM*) (Homo sapiens, UniProt Q9NWB1 109-208, R118D;E147R;N151S;E152T)
T1 sequence: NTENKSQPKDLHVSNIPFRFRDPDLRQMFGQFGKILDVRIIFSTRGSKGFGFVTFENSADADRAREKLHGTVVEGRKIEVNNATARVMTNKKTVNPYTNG

B1: CGGCAUG (DNA:RNA)
RNA: GGGAGACCGGAAUUCAGAUUGUCCCGGCAUGUUAAAUCCCGUCGUAGCCACCA
DNA 1: CAATCTGAATTCCGGTCTCCC
DNA 2: TGGTGGCTACGACGGGATT
B2: UCGAUAG (DNA:RNA)
RNA: B1 RNA with C25U, G26C, C28A, A29U, U30A
DNA 1: CAATCTGAATTCCGGTCTCCC
DNA 2: TGGTGGCTACGACGGGATT
B3: GUGUCUA (DNA:RNA)
RNA: B1 RNA with C25G, G26U, C28U, A29C, G31A
DNA 1: CAATCTGAATTCCGGTCTCCC
DNA 2: TGGTGGCTACGACGGGATT
B4: CCCUCCC (DNA:RNA)
RNA: B1 RNA with G26C, G27C, C28U, A29C, U30C, G31C
DNA 1: CAATCTGAATTCCGGTCTCCC
DNA 2: TGGTGGCTACGACGGGATT
B5: CUUACGA (DNA:RNA)
RNA: B1 RNA with G26U, G27U, C28A, A29C, U30G, G31A
DNA 1: CAATCTGAATTCCGGTCTCCC
DNA 2: TGGTGGCTACGACGGGATT
B6: ACAGAAG (DNA:RNA)
RNA: B1 RNA with C25A, G26C, G27A, C28G, U30A
DNA 1: CAATCTGAATTCCGGTCTCCC
DNA 2: TGGTGGCTACGACGGGATT
B7: AACUUAA (DNA:RNA)
RNA: GGGAGACCGGAAUUCAGAUUGUCCAACUUAAUUAAAUCCCGUCGUAGCCACCA
DNA 1: CAATCTGAATTCCGGTCTCCC
DNA 2: TGGTGGCTACGACGGGATT
B8: GGGGUGU (DNA:RNA)
RNA: B1 RNA with C25G, C28G, A29U, U30G, G31U
DNA 1: CAATCTGAATTCCGGTCTCCC
DNA 2: TGGTGGCTACGACGGGATT
B9: UAUGCAA (DNA:RNA)
RNA: B7 RNA with A25U, C27U, U28G, U29C
DNA 1: CAATCTGAATTCCGGTCTCCC
DNA 2: TGGTGGCTACGACGGGATT
B10: AGCGUAC (DNA:RNA)
RNA: B7 RNA with A26G, U28G, A31C
DNA 1: CAATCTGAATTCCGGTCTCCC
DNA 2: TGGTGGCTACGACGGGATT
B11: GCGAAUU (DNA:RNA)
RNA: B1 RNA with C25G, G26C, C28A, G31U
DNA 1: CAATCTGAATTCCGGTCTCCC
DNA 2: TGGTGGCTACGACGGGATT
B12: CUUCGUG (DNA:RNA)
RNA: B1 RNA with G26U, G27U, A29G
DNA 1: CAATCTGAATTCCGGTCTCCC
DNA 2: TGGTGGCTACGACGGGATT
B13: GCUAUUU (DNA:RNA)
RNA: B7 RNA with A25G, A26C, C27U, U28A, A30U, A31U
DNA 1: CAATCTGAATTCCGGTCTCCC
DNA 2: TGGTGGCTACGACGGGATT
B14: CCAAUUU (DNA:RNA)
RNA: B1 RNA with G26C, G27A, C28A, A29U, G31U
DNA 1: CAATCTGAATTCCGGTCTCCC
DNA 2: TGGTGGCTACGACGGGATT
B15: UGUAUUG (DNA:RNA)
RNA: B1 RNA with C25U, G27U, C28A, A29U
DNA 1: CAATCTGAATTCCGGTCTCCC
DNA 2: TGGTGGCTACGACGGGATT
B16: ACCACAG (DNA:RNA)
RNA: B7 RNA with A26C, U28A, U29C, A31G
DNA 1: CAATCTGAATTCCGGTCTCCC
DNA 2: TGGTGGCTACGACGGGATT
B17: AAGGACA (DNA:RNA)
RNA: B7 RNA with C27G, U28G, U29A, A30C
DNA 1: CAATCTGAATTCCGGTCTCCC
DNA 2: TGGTGGCTACGACGGGATT
B18: CUGUACU (DNA:RNA)
RNA: B1 RNA with G26U, C28U, U30C, G31U
DNA 1: CAATCTGAATTCCGGTCTCCC
DNA 2: TGGTGGCTACGACGGGATT
B19: GAUGAUA (DNA:RNA)
RNA: B7 RNA with A25G, C27U, U28G, U29A, A30U
DNA 1: CAATCTGAATTCCGGTCTCCC
DNA 2: TGGTGGCTACGACGGGATT
B20: GGACUGU (DNA:RNA)
RNA: B1 RNA with C25G, G27A, A29U, U30G, G31U
DNA 1: CAATCTGAATTCCGGTCTCCC
DNA 2: TGGTGGCTACGACGGGATT
B21: UGCUGUU (DNA:RNA)
RNA: B7 RNA with A25U, A26G, U29G, A30U, A31U
DNA 1: CAATCTGAATTCCGGTCTCCC
DNA 2: TGGTGGCTACGACGGGATT
B22: CGAGGCU (DNA:RNA)
RNA: B1 RNA with G27A, C28G, A29G, U30C, G31U
DNA 1: CAATCTGAATTCCGGTCTCCC
DNA 2: TGGTGGCTACGACGGGATT
B23: UGGAAUU (DNA:RNA)
RNA: B1 RNA with C25U, C28A, G31U
DNA 1: CAATCTGAATTCCGGTCTCCC
DNA 2: TGGTGGCTACGACGGGATT
B24: CUCGACC (DNA:RNA)
RNA: B1 RNA with G26U, G27C, C28G, U30C, G31C
DNA 1: CAATCTGAATTCCGGTCTCCC
DNA 2: TGGTGGCTACGACGGGATT
B25: UUCACCU (DNA:RNA)
RNA: B7 RNA with A25U, A26U, U28A, U29C, A30C, A31U
DNA 1: CAATCTGAATTCCGGTCTCCC
DNA 2: TGGTGGCTACGACGGGATT
B26: UCCUGGC (DNA:RNA)
RNA: B7 RNA with A25U, A26C, U29G, A30G, A31C
DNA 1: CAATCTGAATTCCGGTCTCCC
DNA 2: TGGTGGCTACGACGGGATT
B27: UAUAGUG (DNA:RNA)
RNA: B1 RNA with C25U, G26A, G27U, C28A, A29G
DNA 1: CAATCTGAATTCCGGTCTCCC
DNA 2: TGGTGGCTACGACGGGATT
B28: AUCUUAU (DNA:RNA)
RNA: B7 RNA with A26U, A31U
DNA 1: CAATCTGAATTCCGGTCTCCC
DNA 2: TGGTGGCTACGACGGGATT
B29: GGCUUAU (DNA:RNA)
RNA: B7 RNA with A25G, A26G, A31U
DNA 1: CAATCTGAATTCCGGTCTCCC
DNA 2: TGGTGGCTACGACGGGATT
B30: GCGGCUU (DNA:RNA)
RNA: B1 RNA with C25G, G26C, C28G, A29C, G31U
DNA 1: CAATCTGAATTCCGGTCTCCC
DNA 2: TGGTGGCTACGACGGGATT
B31: GACGAAC (DNA:RNA)
RNA: B7 RNA with A25G, U28G, U29A, A31C
DNA 1: CAATCTGAATTCCGGTCTCCC
DNA 2: TGGTGGCTACGACGGGATT

What follows are binders tested against T1, RBFOX1 RRM RbFoxmut (Fox-RRM*) (assay: EMSA; HiTS-Eq, 1 nM pool, 10 min; buffer printed only for the single-RNA assays: 10 mM Tris pH 7.5, 150 mM NaCl, 3.4 mM EDTA, 0.001% NP-40, 30 C). Conditions: tags: His6 N-terminal (pET28a); label: 5' 32P.
Method in brief: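 Purified RbFox RRM, wild type or mutant, was incubated for 10 min in 50 µL with 1 nM of a 5′-radiolabelled RNA pool carrying 7 randomized nucleotides, whose flanks were annealed to DNA oligonucleotides, over a series of increasing protein concentrations. Unbound RNA was resolved on 8% native PAGE, cut out, reverse-transcribed, barcoded by PCR and sequenced on an Illumina HiSeq 2500. Relative association constants were derived from changes in read counts for each RNA species versus the control reaction and normalised to the cognate motif.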

First: B1
Second: B2
The binding signal of the first is higher: 0.998 KA relative to UGCAUGU for the first, 0.1 KA relative to UGCAUGU for the second.

Compared with B3, B4 is lower in binding signal: 0.13 KA relative to UGCAUGU for the first, 0.0396 KA relative to UGCAUGU for the second.

Compared with B5, B6 is higher in binding signal: 0.0655 KA relative to UGCAUGU for the first, 0.132 KA relative to UGCAUGU for the second.

First: B7
Second: B8
The binding signal of the first is lower: 0.113 KA relative to UGCAUGU for the first, 0.267 KA relative to UGCAUGU for the second.

First: B9
Second: B10
The binding signal of the first is lower: 0.067 KA relative to UGCAUGU for the first, 0.123 KA relative to UGCAUGU for the second.

First: B11
Second: B12
The binding signal of the first is lower: 0.113 KA relative to UGCAUGU for the first, 0.135 KA relative to UGCAUGU for the second.

Compared with B13, B14 is lower in binding signal: 0.0933 KA relative to UGCAUGU for the first, 0.0683 KA relative to UGCAUGU for the second.

First: B15
Second: B16
The binding signal of the first is higher: 0.691 KA relative to UGCAUGU for the first, 0.0853 KA relative to UGCAUGU for the second.

Compared with B17, B18 is higher in binding signal: 0.0434 KA relative to UGCAUGU for the first, 0.102 KA relative to UGCAUGU for the second.

First: B19
Second: B20
The binding signal of the first is lower: 0.12 KA relative to UGCAUGU for the first, 0.263 KA relative to UGCAUGU for the second.

Compared with B21, B22 is lower in binding signal: 0.127 KA relative to UGCAUGU for the first, 0.0861 KA relative to UGCAUGU for the second.

First: B23
Second: B24
The binding signal of the first is higher: 0.104 KA relative to UGCAUGU for the first, 0.0878 KA relative to UGCAUGU for the second.

First: B25
Second: B26
The binding signal of the first is lower: 0.0905 KA relative to UGCAUGU for the first, 0.128 KA relative to UGCAUGU for the second.

Compared with B27, B28 is higher in binding signal: 0.137 KA relative to UGCAUGU for the first, 0.165 KA relative to UGCAUGU for the second.

First: B29
Second: B30
The binding signal of the first is higher: 0.0884 KA relative to UGCAUGU for the first, 0.0832 KA relative to UGCAUGU for the second.

With B31 the binding signal was 0.062 KA relative to UGCAUGU.
